Test results: the supplement of paper PMC4604168 (melanoma cell lines)
The other results are listed elsewhere or left out. Single values are uncertain, as repeats are few or missing.

The molecules below were run on A101D (assay: cell count relative to DMSO control; melanoma cells; higher = more viable cells). Settings: library dose: standard library concentration; 72 h.
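Note: cells treated in 1,536-well plates, then fixed and DAPI-stained, with nuclei counted from automated high-throughput microscope images.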

| Structure (SMILES) | cell count |
| --- | --- |
| OCc1c[nH]c2ccccc12 [Indole-3-carbinol] + OCCn1cc(-c2cnc3nnn(Cc4ccc5ncccc5c4)c3n2)cn1 [PF04217903] (first compound 4 µM, partner dose 5 µM) | 98.9% |
| Clc1ccc(Nc2nnc(Cc3ccncc3)c3ccccc23)cc1 [vatalanib] + Cn1cncc1[C@@](N)(c1ccc(Cl)cc1)c1ccc2c(c1)c(-c1cccc(Cl)c1)cc(=O)n2C [tipifarnib] (first compound 10 µM, partner dose 0.05 µM) | 60.8% |
| Nc1cccc2c1CN(C1CCC(=O)NC1=O)C2=O (stereo not given) [lenalidomide] + O=C(CCCCCCC(=O)Nc1ccccc1)NO [vorinostat] (first compound 5 µM, partner dose 0.4 µM) | 61.7% |
| Cn1c(Nc2ccc(C(F)(F)F)cc2)nc2cc(Oc3ccnc(-c4ncc(C(F)(F)F)[nH]4)c3)ccc21 + COCC[n+]1c2c(n(Cc3cnccn3)c1C)C(=O)c1ccccc1C2=O [YM155] (first compound 0.4 µM, partner dose 0.002 µM) | 53.3% |
| Cn1c(Nc2ccc(C(F)(F)F)cc2)nc2cc(Oc3ccnc(-c4ncc(C(F)(F)F)[nH]4)c3)ccc21 + Cc1ccc(NC(=O)c2cccc(N(C)C)c2)cc1NC(=O)c1ccc(O)cc1 [ZM336372] (first compound 0.4 µM, partner dose 10 µM) | 48.6% |
